The whole screen tested about 50,000 compounds, of which about 800 (1.6%) showed an effect of 50% or more. This is one part of the list.

This is an account of results in PubChem BioAssay AID1240 (Sanford-Burnham Center for Chemical Genomics, 2008).

The target of this assay is Bcl-2-like protein 10 (Homo sapiens) (UniProt Q9HD36). In words: TR3 peptide-Bcl-B binding displacers, biochemical primary FP assay, phenotype converters (AID 1240).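 Also: 0% = Bcl-B with tracer peptide and DMSO and 100% = tracer peptide lacking Bcl-B.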 The settings on record: GST-Bcl-B / FITC-TR3 peptide fluorescence polarization; stronger effect = higher value; compound at 3.75 mg/L.
Sequence of UniProt Q9HD36 (Q9HD36 whole entry, looked up): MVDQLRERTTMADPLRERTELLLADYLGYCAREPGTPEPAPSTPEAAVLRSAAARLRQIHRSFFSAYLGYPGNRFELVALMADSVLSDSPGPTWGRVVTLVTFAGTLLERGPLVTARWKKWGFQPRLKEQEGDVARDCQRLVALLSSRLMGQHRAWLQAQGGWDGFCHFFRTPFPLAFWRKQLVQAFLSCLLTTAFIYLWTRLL
Turning to `Cc1ccccc1OC1=NS(=O)(=O)c2ccccc21`, the displacement is -5.9%.
As for `Cn1c(=O)c2c(nc(Sc3nc4ccccc4n3Cc3ccccc3)n2C)n(C)c1=O`, the figure is 8.7%; as for `N#CC1=C(SCc2ccccc2)NC(=O)C(C#N)C12CCCCC2` (centres undefined), 3.4%.
As for `CC(C)=C(NC(=O)c1ccccc1)C(=O)N1CCOCC1`, the figure is 3%; as for `CCCOC(=O)C1=C(C)NC2=C(C(=O)CC(c3ccc(OC)cc3)C2)C1c1ccc([N+](=O)[O-])cc1` (centres undefined), -11.8%.
`CC(Oc1ccccc1)C(=O)Nc1cc([N+](=O)[O-])ccc1Cl` (centres undefined): the displacement is -1.9%.
As for `Nc1nnc(-c2ccccc2-c2nnc(N)s2)s1`, the figure is 5.7%.
In the case of `COC(=O)CN(c1ccc(OC)cc1OC)S(=O)(=O)c1ccccc1`, the displacement was -1.6%.
As to `COc1cc(C(=O)N2CCN(Cc3cccc(C(F)(F)F)c3)CC2)cc(OC)c1OC`, the displacement stood at 3.1%.
The value for `Cc1ccc(OCc2nnc(NC(=O)Nc3ccccc3)s2)c(C)c1` was 2.3%; that for `COc1ccc(/C(N)=N/OC(=O)c2cccc([N+](=O)[O-])c2C)cc1` was -2.9%.
`CCOC(=O)c1c(NC(=O)/C=C/c2ccccc2)sc(C(=O)N(CC)CC)c1C`: the displacement is -1.5%.
As for `C/C(=N\NC(=O)COc1cccc(C)c1)c1ccc(Br)cc1`, the displacement was found to be 6.7%.
As to `C=CCN1CN=C(NS(=O)(=O)c2ccc(C)cc2)NC1`, the displacement is -1.3%.
`CC(C)Oc1ccc(/C=N/NC(=O)C(=O)NC2CCCCC2)cc1`: the displacement came out at 11.9%.
With `Cc1c(Cl)cccc1-c1ccc(C(=O)Nc2cccc(Cl)c2Cl)o1`, the displacement is 2.2%.
Consider `O=C(COc1ccc2c(c1)oc(=O)c1ccccc12)c1ccc(F)cc1`, for which the displacement came out at 8.1%.
As for `Cc1c(NC(=O)/C=C/c2ccccc2)c(=O)n(-c2ccccc2)n1C`, the figure is 2.7%; as for `O=C(O)COc1ccc2c3c(c(=O)oc2c1)CCCC3`, -5.4%; as for `O=C(CN1C(=O)S/C(=C/c2ccccc2F)C1=O)Nc1ccccc1`, 10.1%.
Turning to `O=C(NCc1ccccc1Cl)c1cccc(Br)c1`, the displacement was determined as 2.8%.
Regarding `COC(=O)c1ccccc1NC(=O)CSc1nc2c(c(=O)n(C)c(=O)n2C)n1C`, the displacement was determined as 10.4%.
As for `Cc1ccc(C(C)C)c(OCC(=O)Nc2ccc(F)c([N+](=O)[O-])c2)c1`, the displacement is 1.2%.
As for `C=CCOC(=O)C1=C(C)NC(C)=C(C(=O)OCC=C)C1c1cccc([N+](=O)[O-])c1`, the displacement worked out at 14.2%.
On to `CCCC(=O)Nc1ccc(NC(=O)c2cccc(Cl)c2)cc1`, for which the displacement was 8.5%.
Regarding `c1ccc(Cn2ncc3c(N4CCOCC4)ncnc32)cc1`, the displacement came to 3.2%.
On to `CCN1C(=O)/C(=C/c2ccc(C)o2)C(=O)NC1=S`, for which the displacement was determined as 8.8%.
As for `O=C(/C=C/c1ccccc1Cl)Nc1ccc([N+](=O)[O-])cc1`, the displacement was -0.8%.
As for `O=[N+]([O-])c1cccc(S(=O)(=O)Nc2ccccc2-c2ccccc2)c1`, the figure is -2.6%; as for `Cc1ccc(N(CC(=O)Nc2ccc3ccccc3c2)S(=O)(=O)c2ccc(F)cc2)cc1`, 8.3%; as for `O=C(Nc1ccc(Br)cc1)c1ccccc1O`, 3.7%.
Consider `COC(=O)C1C(=O)CC(C)(O)C(C(=O)OC)C1/C=C/c1ccccc1` (centres undefined), for which the displacement is -7.4%.
For `Cc1oc(-c2nc3ccccc3n2C)cc1C(=O)c1ccccc1`, the displacement is 14.1%.
Take `CCCCOc1cccc(C(=O)Nc2ccc(I)cc2Cl)c1`: the displacement is -0.6%.
`CCCCOC(=O)Nc1nnc(-c2ccco2)s1`: the displacement was -0.3%.
`COC(=O)CNC(=O)c1cccc([N+](=O)[O-])c1`: the displacement is -3.3%.
In the case of `CCOC(=O)c1c(C)oc2ccc(OC(=O)c3ccccc3OC)cc12`, the displacement was determined as 8.9%.
As for `COc1cc(/C=C2\C(=O)NC(=S)N(c3ccc(C(C)C)cc3)C2=O)ccc1O`, the figure is 3.1%; as for `CCOC(=O)C1=C(C)NC(=O)/C1=C\c1cccs1`, 108%; as for `N=C1S/C(=C\c2ccc(-c3ccc([N+](=O)[O-])cc3)o2)C(=O)N1c1ccc2c(c1)OCO2`, -9.3%.
Consider `Cc1cccc(-c2nc3ccccc3[nH]2)c1`, for which the displacement came to 10.9%.
Take `FC(F)(F)COc1nc(N2CCOCC2)nc(N2CCN(Cc3ccccc3)CC2)n1`: the displacement stood at 14.3%.
In the case of `Cc1cc(C)n(Cc2cc(C)c(Cn3nc(C)cc3C)cc2C)n1`, the displacement came out at 3.2%.
As for `CCCN(CCC)C(=O)c1cnn(-c2ccccc2)c1NC(=O)c1cccc(F)c1`, the figure is 2.4%; as for `CCOc1cc(/C=N/n2cnnc2)ccc1OCc1ccc(F)cc1`, -1.9%.
With `COc1cc(/C=N\N2CCN(c3ccccc3OC)CC2)ccc1OCc1ccccc1`, the displacement was -3.9%.
Regarding `O=C1CC(c2ccccc2)CC2=C1C(c1cccs1)Nc1ccc(C(=O)c3ccccc3)cc1N2` (centres undefined), the displacement stood at 29.2%.
Consider `CCOC(=O)N1N=C(CC)CC1(O)c1ccncc1` (centres undefined), for which the displacement is -0.2%.
As for `Cc1ccc(C(=O)Nc2ccc(C(N)=O)cc2)cc1C`, the displacement was -2.8%.
As for `COc1ccc(CCNC(=O)COc2ccc3ccccc3c2)cc1OC`, the displacement was -21.6%.
Regarding `CC(=O)Nc1ccc(-c2ccc(OCc3ccccc3)cc2)cc1`, the displacement was -12%.
As to `O=C1NC(=Nc2ccc(O)cc2)S/C1=C/C=C/c1ccccc1`, the displacement is -5.6%.
On to `COc1ccc(Br)cc1C(=O)Nc1ccc2nn(-c3ccc(F)cc3)nc2c1`, for which the displacement is 5.4%.
As for `Cc1ccc(COc2ccc(/C=N/NC(=O)CN3CCCCC3)cc2)cc1`, the figure is 6.5%; as for `O=C(O)c1cccc(N2Cc3ccc(Br)cc3C2)c1`, 4.4%.
As for `Cc1oc2ccc(OCc3ccccc3Cl)cc2c1C(=O)O`, the figure is 5.8%; as for `Cc1ccc(-c2cc(C(F)(F)F)n3ncc(C(=O)Nc4cccnc4)c3n2)cc1`, 0.9%.
Turning to `O=C(COc1ccc(Br)cc1)Nc1ccc(Cl)c(Cl)c1`, the displacement turned out to be 7.3%.
On to `CC(=O)/C(=C1\NC(C)(C)Cc2ccccc21)c1ccccc1`, for which the displacement is -10.4%.
On to `O=C(Nc1ccc(Cl)c(Cl)c1)Nc1ccccc1C(=O)O`, for which the displacement was found to be 12.8%.
As for `CCOCCOC(=O)C1=C(C)NC2=C(C(=O)CC(C)(C)C2)C1c1cc([N+](=O)[O-])ccc1Cl` (centres undefined), the displacement is -4.6%.
As for `Cc1ccccc1OCC(=O)O/N=C(\N)Cc1cccc2ccccc12`, the displacement was 14.8%.
Turning to `NC(=O)c1cccc(N=Cc2ccccc2[N+](=O)[O-])c1`, the displacement was -9.8%.
For the compound `O=C(CSc1nc2ccc(N3C(=O)c4ccccc4C3=O)cc2s1)Nc1ccc([N+](=O)[O-])cc1`, the displacement was -36.3%.
As for `CC(=O)c1cccc(N2C(=O)c3ccc(Oc4ccc([N+](=O)[O-])cc4)cc3C2=O)c1`, the displacement worked out at 19.1%.
As to `O=C1/C(=C/c2ccc(Br)cc2)SC(=S)N1Nc1ccccc1`, the displacement was -1.3%.
Take `COc1ccc2c(c1)-c1c(ssc1=Nc1ccc(S(=O)(=O)Nc3nccs3)cc1)C(C)(C)N2`: the displacement was 4.6%.
For `Cc1cc(Cl)ccc1NC(=O)C(N)=O`, the displacement is 1.8%.
Consider `Cc1ccc(S(=O)(=O)Nc2ccccc2I)cc1[N+](=O)[O-]`, for which the displacement came out at 17.1%.
